# Measurements reported in the RNAGym collection of RNA variant scans (doi:10.1093/nar/gkz1192).
# The source gives no read counts; variants with many changes may rest on few reads.
# B1: CPEB3 Ribozyme (parent)
# chain: UAACAGGGGGCCACAGCAGAAGCGUUCACGUCGCAGCCCCUGUCAGAUUCUGGUGAAUCUGCGAAUUCUGCUGUAUAUCUC
# Variants of: B1
# Assay: self-cleavage, relative activity (ratio to wild type); higher = more cleavage; in vitro, sequencing
# Procedure, shortened: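 Relative activity compares each variant's cleaved/total read fraction with that of the unmutated ribozyme. To get these fractions, barcoded CPEB3 ribozyme libraries from rounds of error-prone PCR were transcribed with T7 RNA polymerase for 5 hours at 37°C and then given 15 min of DNase I treatment before EDTA was added. The RNAs were reverse transcribed with template switching and sequenced on Illumina, and DNA sequencing linked barcodes to variants. A minimum of 5 reads applied, and three batches were averaged.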
row,Variant,self-cleavage
1,A2G A21G U25A U74C,0.54
2,A2G A21G U25C A64G,0.35
3,A2G A21G U25C U26C U72C U78A,0.14
4,A2G A21G U54C,0.46
5,A2G A21U C40A U66C,0.08
6,A2G A28G A64G,0.39
7,A2G A28G A75U,0.71
8,A2G A28U U48A,0.22
9,A2G A28U U54C U69A,0.15
10,A2G A28U U60C A65G U72G A75G,0.07
11,A2G A28U U69A A77G U80C,0.18
12,A2G A35C U43C A47U A56G,0.07
13,A2G A35G A47G U60A A64U,0.55
14,A2G A35G U60C,0.32
15,A2G A35U C40U U58C U69A,0.05
16,A2G A35U U49A A56U U60C A75U U76C,0.09
17,A2G A45U U48C U72C,0.28
18,A2G A45U U54C A56U,0.09
19,A2G A47G A56G,0.36
20,A2G A47G U48A U60A U80A,0.33
21,A2G A47G U49C A65G,0.5
22,A2G A56C U58C U67C,0.1
23,A2G A56G U69C A77U,0.21
24,A2G A56G U72A,0.19

row,Variant,self-cleavage
1,A2G A56G U80C,0.78
2,A2G A56U A64G C79U,0.1
3,A2G A64U U67C,0.16
4,A2G C4U A5G,0.8
5,A2G C4U A13U U49A U78C,0.72
6,A2G C4U A18G U26C U41C,0.14
7,A2G C4U A20U,0.31
8,A2G C4U G10U U31G U51A A56U,0.11
9,A2G C4U U25C U26C A28U A35U,0.13
10,A2G C11A U41C A57G,0.37
11,A2G C11G A20G,0.35
12,A2G C11G A20G U41G U43C,0.05
13,A2G C11U A28G C79G,0.25
14,A2G C12U A21U U41A U43C A57C,0.18
15,A2G C12U U43C,0.86
16,A2G C12U U51C U60A,0.31
17,A2G C14U U48C A65G,0.16
18,A2G C14U U49C U51A,0.28
19,A2G C17U U48C U76C,0.11
20,A2G C23A A28U U43C A56G U76C,0.07
21,A2G C23U A35G A45C A57G U66C,0.05
22,A2G C27U A35U U48C U69A,0.15
23,A2G C29U A35U C37A U48C,0.03
24,A2G C32U U41A A64U U72C,0.1

row,Variant,self-cleavage
1,A2G C37A U51A A57G U69A,0.12
2,A2G C39A U49C U54G A64G,0.15
3,A2G C39G A47G,0.12
4,A2G C40A U48A,0.31
5,A2G C40G G73A,0.48
6,A2G G6A A13U U25C U26C U41C U60A,0.04
7,A2G G6A A15G U25C A57U A77G,0.05
8,A2G G6A C29U U51A,0.07
9,A2G G6A C40U C44G U48C U80C,0.08
10,A2G G6A U31A G63A G73U,0.07
11,A2G G6A U41G U69C G73A,0.42
12,A2G G6A U51C U67C G73A,0.09
13,A2G G6U A15G U41A,0.59
14,A2G G7A A18G A65G U67A,0.21
15,A2G G7A A57U A77U,0.37
16,A2G G7A U41C A47G A56G,0.43
17,A2G G8A A13G U26A,0.44
18,A2G G8A A18G A21G U67C,0.08
19,A2G G8A A20G A35U G52U A56U U76C,0.12
20,A2G G8A C12U A21G A65G,0.05
21,A2G G8A U58C G70A U76A,0.03
22,A2G G8U A15G A18G A64G A75G,0.06
23,A2G G9A C14U G16A U41C U80C,0.08
24,A2G G9A C14U U26A U31A G63A U72C,0.05

row,Variant,self-cleavage
1,A2G G9A U41C U72A,0.54
2,A2G G9C U48C A57G U67C U78C,0.04
3,A2G G9U A18G,0.08
4,A2G G9U C14U A28G U31C U54C U76C,0.05
5,A2G G10A A18U,0.38
6,A2G G10A A20G U26C U69A U78C,0.06
7,A2G G10A C29U U54C U67C,0.05
8,A2G G10C C17G U25C U31A A45G,0.08
9,A2G G16U C23U U60C,0.19
10,A2G G19U A47G,0.59
11,A2G G22U A35U U49C U51A G53U U60C,0.1
12,A2G G24A U43A A57U U80C,0.34
13,A2G G30A A75C,0.36
14,A2G G36C U74A,0.4
15,A2G G52A A56U U60C,0.09
16,A2G G55A A56U,0.24
17,A2G U25A A28U U69C U74A,0.13
18,A2G U25A U26C C37A U60C,0.12
19,A2G U25A U31C U49C U58A U74G,0.05
20,A2G U25C C32U U72C U78C,0.05
21,A2G U25C U26C C29U U80G,0.21
22,A2G U25C U48A,0.34
23,A2G U25C U49A,0.1
24,A2G U25G C39G A56G,0.07

row,Variant,self-cleavage
1,A2G U26A C68A G70U U74C U76A,0.22
2,A2G U26A G36U U76C A77G,0.13
3,A2G U26C A45G U54C U74A,0.56
4,A2G U26C A45G U69G,0.26
5,A2G U26C G33U,0.26
6,A2G U26C U43C U78C C81U,0.28
7,A2G U31C A45G U72A C79G,0.23
8,A2G U31C A65G,0.36
9,A2G U31C C39U U72A,0.13
10,A2G U31C C59A U66C,0.24
11,A2G U31C U41G A45G U51A C59U,0.09
12,A2G U31G C50A U72C,0.58
13,A2G U41A A47G C59A,0.14
14,A2G U41A A75G,0.29
15,A2G U41A U43A G70A,0.44
16,A2G U41A U69C,0.05
17,A2G U41C A47G,0.45
18,A2G U41C U49C A77G,0.17
19,A2G U41C U54A A56G U60G A64G,0.14
20,A2G U41G U49C U54C,0.29
21,A2G U43A A56U A57G,0.43
22,A2G U43C A56C C62G,0.26
23,A2G U48C U72C U76A,0.45
24,A2G U49C U78C,0.72

row,Variant,self-cleavage
1,A2G U51A C62U,0.24
2,A2G U51C U72A,0.66
3,A2G U51C U72G U78C,0.52
4,A2G U54C U80C,0.97
5,A2G U58C U60A,0
6,A2G U60C A65G,0.15
7,A2G U66C U72C U74C,0.16
8,A2G U67A U74A,0.31
9,A2G U69C A75G U80C,0.18
10,A2U A3G G10A A35G U74C,1.22
11,A2U A3U C12A U25C U41A A75U,0.11
12,A2U A5G A15U U43C A64U,0.11
13,A2U A5G U43G U49A A57G U67A,0.43
14,A2U A5G U48C U76A,0.53
15,A2U A5G U72C,0.84
16,A2U A5U A28G U43C U54A A64G,0.04
17,A2U A5U U31A A35U A65C U78C,0.07
18,A2U A13G A28U U69G,0.29
19,A2U A13G A35U A56G U72C,0.17
20,A2U A13G U25C,0.4
21,A2U A13G U54C,0.83
22,A2U A13G U60C,0.33
23,A2U A13U A15U A45G A65G,0
24,A2U A13U A18C U41C A77G,0.24

row,Variant,self-cleavage
1,A2U A13U A18G A45G U72C,0.34
2,A2U A13U U48C A64G,0.32
3,A2U A13U U69C A77G,0.41
4,A2U A15G A28G U43C,0.16
5,A2U A15G A47G U54C U58C U74C C79A,1.33
6,A2U A15U C62U A64G,0.12
7,A2U A18C U26A A35U A45U U72A,0.07
8,A2U A18G A28U U41C A47G U67C U72C,0.16
9,A2U A18G A35G A45U U58C U78C,0.14
10,A2U A18G G52A,0.59
11,A2U A18G U31A,0.39
12,A2U A18U C23U U54C A57G U69A,0.21
13,A2U A20C A45U A57C,0.2
14,A2U A20C U26A U41A A56U A57G,0.19
15,A2U A20G G52A U67C U72G,0.57
16,A2U A20G U67C,0.86
17,A2U A20U U26C U31A U69A U72A C79G,0.06
18,A2U A21G A35G U43C A45U A56G U58A,0.17
19,A2U A21G U43C U49C U72C,0.08
20,A2U A28G U54C U67C,0.14
21,A2U A28U U58C,0.25
22,A2U A35G U41A U48C,0.32
23,A2U A35G U51A C62U,0.89
